In all, about 350,000 compounds went through this assay and about 260 (0.074%) were called active. The shares of active, inactive and inconclusive entries below differ from those in the screen. Calls come from the whole dose curve; as a rule, active = well fitted inhibition curve with a large enough effect; inconclusive = small, poorly fitted or top-dose-only effect; inactive = no such curve, though single readings can be large or run the other way. A potency beside an inconclusive call is a rough fit, not a confirmed value.
molecular target: Ferritin light chain (Equus caballus) (UniProt P02791); test: qHTS Assay for Identification of Novel General Anesthetics; details: apoferritin/1-aminoanthracene competitive binding, fluorescence; series mostly up to 77.5 µM; note: nearly all actives have a fitted effect of over 20% in size
UniProt P02791, sequence (P02791 whole entry, looked up): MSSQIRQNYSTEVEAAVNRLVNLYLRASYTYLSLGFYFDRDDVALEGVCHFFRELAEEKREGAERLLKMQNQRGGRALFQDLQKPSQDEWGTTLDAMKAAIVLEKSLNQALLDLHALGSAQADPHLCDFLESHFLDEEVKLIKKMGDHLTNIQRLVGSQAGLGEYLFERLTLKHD
Method in brief: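 10 uM apoferritin + 50% sat. 1-AMA, PBS; cpd 10 min RT; Ex380/Em535 endpoint; normalized to free probe vs complex; 4-param Hill fit; propofol titration as pos. ctrl.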
Potency is the fitted concentration of half-maximal effect; tags give direction and shape of the fitted curve.

Row | Compound | Potency
1 | CCOc1ccccc1NC(=O)NNC(=O)COc1cccc(C)c1C | inconclusive: 25.1 µM [inhibitor, partial curve]
2 | CC(C)N(C(=O)COc1ccc(Br)cc1Cl)C(C)C | inconclusive: 28.2 µM [inhibitor, partial curve]
3 | COc1ccc(C(=O)n2nc(C)cc2C)cc1Br | inconclusive: 31.6 µM [inhibitor, partial curve]
4 | COc1ccccc1/C=C/CN1CCC(n2nccc2NC(=O)CCc2ccccc2)CC1 | inconclusive: 17.8 µM [inhibitor, partial curve]
5 | CCOc1ccc(/C=C2\SC(=S)N(CCC(=O)N(CCO)c3ccccc3)C2=O)cc1 | inconclusive: 28.2 µM [inhibitor, single point]
6 | Cc1cc(C)nc(SCc2nnc(SCC(=O)OC3CCCCC3)o2)n1 | inconclusive: 39.8 µM [inhibitor, partial curve]
7 | NC(=O)C1CCCN1C(=O)C(Cc1cnc[nH]1)NC(=O)C1CCC(=O)N1 (stereo unspecified) | inactive
8 | Fc1ccc(/C=N/n2c(C3CCCCC3)n[nH]c2=S)cc1 | inconclusive: 56.2 µM [inhibitor, single point]
9 | CSC(=S)N/N=C/c1ccccc1 | inconclusive: 25.1 µM [inhibitor, partial curve]
10 | CCCCCCOc1ccc(N2C(=O)CC(SCCN)C2=O)cc1 (stereo unspecified) | inconclusive: 7.94 µM [inhibitor, partial curve]
11 | O=c1[nH]c(COc2ccc(Cl)cc2Br)nc2ccccc12 | inconclusive: 31.6 µM [inhibitor, partial curve]
12 | Cc1cc([N+](=O)[O-])nn1Cc1ccc(F)cc1 | inconclusive: 25.1 µM [inhibitor, partial curve]
13 | Cc1cccc(-c2nnc(SCC(=O)N3CCCC3)o2)c1 | inactive
14 | Cc1cccc(N2CCN(C(=O)Cn3cccc3C(=O)c3ccccc3)CC2)c1C | inconclusive: 17.8 µM [inhibitor, partial curve, poor fit]
15 | O=C(CC(=O)NN=C1CCCCCC1)NCc1cccnc1 | inconclusive: 15.8 µM [inhibitor, partial curve]
16 | COc1ccccc1-c1ccc(SCc2ccc(F)cc2)nn1 | inconclusive: 25.1 µM [inhibitor, partial curve]
17 | CCOC(=O)c1ccc(NC(=O)Cn2nc(SC)c(S(=O)(=O)c3ccc(Cl)cc3)c2N)cc1 | inactive
18 | Nc1ccc(N2CCCCC2)c(Cl)c1 | inconclusive: 35.5 µM [inhibitor, partial curve]
19 | Cc1nc(C)c(-c2ccc(SCC(=O)Nc3ccc(Cl)c(Cl)c3)nn2)s1 | inconclusive: 31.6 µM [inhibitor, partial curve]
20 | CC1CCc2sc(C(=O)N/N=C/C3CCCCC3)cc2C1 (stereo unspecified) | inconclusive: 28.2 µM [inhibitor, single point]
21 | O=C(CSc1n[nH]c(Cc2ccccc2)n1)Nc1ccccc1Br | inconclusive: 35.5 µM [inhibitor, single point]

Row | Compound | Potency
22 | Cc1cc(OCCCn2ccnc2)ccc1C(C)C | inconclusive: 20 µM [inhibitor, partial curve]
23 | CCOC(=O)c1c(C(F)(F)C(F)(F)C(F)(F)C(F)(F)F)n[nH]c1C | inconclusive: 3.55 µM [inhibitor, full curve, poor fit]
24 | Cc1ccc(-n2nc3c(SCCN4CCOCC4)nnc(C)c3c2C)cc1 | inactive
25 | O=C(C1CC(c2ccccc2O)=NO1)N1CCCCC1 (stereo unspecified) | inconclusive: 39.8 µM [inhibitor, partial curve]
26 | COc1cccc(CNC(=O)C2CCN(C(=O)N3CCOc4ccc(Cl)cc43)CC2)c1OC | inactive
27 | CC(C)CC(NC(=O)OC(C)(C)C)c1cn([C@@H](Cc2cc3ccccc3[nH]2)C(=O)N2CCN(C(=O)OC(C)(C)C)CC2)nn1 (stereo partly specified) | inconclusive: 3.98 µM [inhibitor, single point]
28 | CCC(C)n1cnc2c(c1=O)c1nc3ccccc3nc1n2Cc1ccc(OC)cc1 (stereo unspecified) | inconclusive: 5.62 µM [inhibitor, partial curve]
29 | CCC(CC)c1nnc(NC(=O)C2COc3ccccc3O2)s1 (stereo unspecified) | inconclusive: 31.6 µM [inhibitor, partial curve]
30 | CC(C)=CC(=O)OCC(=O)Nc1ccc(F)cc1Cl | inconclusive: 17.8 µM [inhibitor, partial curve]
31 | CC(C)(C)C(=O)Nc1ccc(S(=O)(=O)c2ccc(NC(=O)C(C)(C)C)cc2)cc1 | inconclusive: 39.8 µM [inhibitor, single point]
32 | O=C(CC1N=C2c3ccccc3N=C(SCc3ccccc3F)N2C1=O)NCCc1ccccc1 (stereo unspecified) | inconclusive: 5.62 µM [inhibitor, full curve]
33 | COc1cccc(C2C(C(=O)c3cc4ccccc4o3)=C(O)C(=O)N2c2cc(C)on2)c1 (stereo unspecified) | inconclusive: 31.6 µM [inhibitor, partial curve]
34 | COc1ccc(-c2csc3nc(C)nc(N4CCCCC4)c23)cc1OC | inactive
35 | COc1cccc(NC(=O)Nc2ccc(C(C)(C)C)cc2)c1 | inconclusive: 7.94 µM [inhibitor, partial curve]
36 | CC(c1ccc(F)cc1)n1c(Cn2ncc3ccccc3c2=O)n[nH]c1=S (stereo unspecified) | inconclusive: 31.6 µM [inhibitor, partial curve]
37 | Cn1cc(CN2CCCC(C(=O)c3cc(F)ccc3F)C2)c2ccccc21 (stereo unspecified) | inconclusive: 20 µM [inhibitor, partial curve]
38 | Cc1cc(OCC(=O)Nc2ccc(CN3CCOCC3)cc2)ccc1Cl | inconclusive: 20 µM [inhibitor, partial curve]
39 | COc1cc(CNCCc2c[nH]c3ccccc23)ccc1OCc1ccc(F)cc1 | inconclusive: 22.4 µM [inhibitor, partial curve]
40 | COc1cccc(-c2nc(SCc3cc(=O)c4ccc(C)c(C)c4[nH]3)n[nH]2)c1 | inconclusive: 20 µM [inhibitor, partial curve]
41 | CCn1nc([N+](=O)[O-])c(C(C#N)c2nc3cc(C(F)(F)F)ccc3s2)c(Cl)c1=O (stereo unspecified) | inconclusive: 35.5 µM [inhibitor, partial curve]

Source: PubChem BioAssay AID485281 (National Center for Advancing Translational Sciences (NCATS), 2010)
